PubChem BioAssay (Tox21)
Values joined by “and” are separate entries in the source; they are usually repeats but may differ in a detail not shown here. Equal entries are not always repeated. Inconclusive means that the source gave no clear call. Such entries were picked first, then a sample of the others. Potencies beside an inconclusive call are fits to weak or partial responses and may not hold up. Where a structure was tested more than once in an assay, its records may differ in their call. Active and inactive are the calls of the source. Unless noted, calls follow the shape of the dose curve; as a rule, active = well fitted curve in the direction sought with a large enough effect in the repeat runs; inconclusive = weak or mixed curves; inactive = no such curve, though single readings can be large; an effect the other way counts as inactive or inconclusive.

Tests used:
[1] = biological target: Progesterone receptor (Homo sapiens) (UniProt P06401); assay: qHTS assay to identify small molecule antagonists of the progesterone receptor (PR) signaling pathway (AID 1346795; active = well fitted inhibition curve with a large enough effect in the signal ratio in the repeat runs, not every such curve was filed as active; inconclusive = weak or mixed curves; the % refers to the signal ratio; as to activity change, negative = inhibition: % is scaled to controls: 0 for no effect and ±100 for the full control effect); conditions: PR-UAS-bla HEK293T, beta-lactamase FRET ratio, 16 h; activity change, negative = inhibition: at 92.4 µM (top of the series) unless noted
Summary of the method: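 After 6 hr plating at 37C in 2% stripped-serum medium, PR-UAS-bla HEK293T cells got compounds, then 1 nM R5020. Sixteen hours later, LiveBLAzer substrate was applied for 2 hr at room temperature and fluorescence was recorded.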

[2] = qHTS assay to identify small molecule antagonists of the progesterone receptor (PR) signaling pathway - cell viability counter screen (AID 1346798); also: nearly all actives have a fitted effect of over 50% in size
Summary of the method: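 Viability was determined by ATP-based luminescence (CellTiter-Glo) in PR-UAS-bla HEK293T cells cultured in 2% charcoal-stripped serum and incubated 16 hr with compounds under R5020 stimulation.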

[3] = qHTS assay to identify small molecule agonists of the progesterone receptor (PR) signaling pathway - cell viability counter screen (AID 1346799; calls by dose curve; also: nearly all actives have a fitted effect of over 45% in size; as to activity change, negative = cytotoxicity: % is scaled to controls: 0 for no effect and ±100 for the full control effect)
Summary of the method: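 Viability was scored by ATP luminescence (CellTiter-Glo, 30 min, room temperature) in the same wells used for the reporter readout, after 16 hr compound exposure of PR-UAS-bla HEK293T cells.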

[4] = qHTS assay to identify small molecule antagonists of the TGF-beta/Smad signaling pathway - cell viability counter screen (AID 1346824); also: nearly all actives have a fitted effect of over 50% in size
Summary of the method: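 SBE-bla HEK 293T cells were plated overnight at 37 C, then given compounds in DMSO plus TGF-beta1 (added as 0.25 ng/mL solution) for 5 hr. After the bla read, CellTiter-Glo was added to the same wells and luminescence read after 30 min at room temperature.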

[5] = qHTS assay to identify small molecule agonists of the TGF-beta/Smad signaling pathway - cell viability counter screen (AID 1346829); also: nearly all actives have a fitted effect of over 45% in size
Summary of the method: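 Here the cytotoxicity of library compounds is measured in SBE-bla HEK 293T cells treated for 5 hr, using CellTiter-Glo added to wells already read for the beta-lactamase reporter.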

[6] = qHTS assay to identify small molecule agonists of the TGF-beta/Smad signaling pathway (AID 1346859; active = well fitted activation curve with a large enough effect in the signal ratio in the repeat runs, not every such curve was filed as active; inconclusive = weak or mixed curves; the % refers to the signal ratio; as to activation: % is scaled to controls: 0 for no effect and ±100 for the full control effect); conditions: SBE-bla HEK293T, TGF-beta/Smad beta-lactamase reporter, 5 h; activation: at 76.8 µM (top of the series)
Summary of the method: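 Dual-wavelength fluorescence (460/530 nm emission) quantified beta-lactamase expression under the Smad binding element in HEK 293T cells following 5 hr compound treatment at 37 C.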

[7] = qHTS assay to identify small molecule antagonists of the TGF-beta/Smad signaling pathway (AID 1346924; active = well fitted inhibition curve with a large enough effect in the signal ratio in the repeat runs, not every such curve was filed as active; inconclusive = weak or mixed curves; the % refers to the signal ratio); conditions: SBE-bla HEK293T, TGF-beta/Smad reporter, beta-lactamase ratio; activity, negative = inhibition: at 76.8 µM (top of the series) unless noted
Summary of the method: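 Read-out was FRET-substrate fluorescence (405 nm excitation; 460 and 530 nm emission) after 2 h at room temperature. Before that, cells carrying a Smad-binding-element beta-lactamase reporter in HEK 293T had been stimulated 5 h at 37 C with TGF-beta1 (0.25 ng/mL addition solution) in the presence of test compound.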

[8] = Human pregnane X receptor (PXR) small molecule agonists, qHTS cell viability counter screen (AID 1346977); also: nearly all actives have a fitted effect of over 50% in size; as to activity change, negative = cytotoxicity: % is scaled to controls: 0 for no effect and ±100 for the full control effect
Summary of the method: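 HepG2 cells stably carrying the PXR-Luc reporter are cultured with 5% charcoal-stripped FBS and treated with compounds for 24hr. CellTiter-Fluor is added at 23hr and fluorescence is read after 1hr.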

[9] = biological target: Thyrotropin-releasing hormone receptor (Homo sapiens) (UniProt P34981); assay: qHTS assay to identify small molecule antagonists of the thyrotropin-releasing hormone receptor (TRHR) signaling pathway (AID 1346877; active = well fitted inhibition curve with a large enough effect in the repeat runs, not every such curve was filed as active; inconclusive = weak or mixed curves)
Summary of the method: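 Antagonism is measured as suppression of the calcium response to 1 nM TRH in TRHR-HEK293 cells that have been dye-loaded for 2 h at 37 °C after overnight plating. Each compound is tested at 15 concentrations in triplicate.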
Potency is read from the fitted curve at half-maximal effect; tags tell the direction and shape of the fitted curve or compound fluorescence and quenching.

Sequence of UniProt P06401 (P06401 whole entry, looked up): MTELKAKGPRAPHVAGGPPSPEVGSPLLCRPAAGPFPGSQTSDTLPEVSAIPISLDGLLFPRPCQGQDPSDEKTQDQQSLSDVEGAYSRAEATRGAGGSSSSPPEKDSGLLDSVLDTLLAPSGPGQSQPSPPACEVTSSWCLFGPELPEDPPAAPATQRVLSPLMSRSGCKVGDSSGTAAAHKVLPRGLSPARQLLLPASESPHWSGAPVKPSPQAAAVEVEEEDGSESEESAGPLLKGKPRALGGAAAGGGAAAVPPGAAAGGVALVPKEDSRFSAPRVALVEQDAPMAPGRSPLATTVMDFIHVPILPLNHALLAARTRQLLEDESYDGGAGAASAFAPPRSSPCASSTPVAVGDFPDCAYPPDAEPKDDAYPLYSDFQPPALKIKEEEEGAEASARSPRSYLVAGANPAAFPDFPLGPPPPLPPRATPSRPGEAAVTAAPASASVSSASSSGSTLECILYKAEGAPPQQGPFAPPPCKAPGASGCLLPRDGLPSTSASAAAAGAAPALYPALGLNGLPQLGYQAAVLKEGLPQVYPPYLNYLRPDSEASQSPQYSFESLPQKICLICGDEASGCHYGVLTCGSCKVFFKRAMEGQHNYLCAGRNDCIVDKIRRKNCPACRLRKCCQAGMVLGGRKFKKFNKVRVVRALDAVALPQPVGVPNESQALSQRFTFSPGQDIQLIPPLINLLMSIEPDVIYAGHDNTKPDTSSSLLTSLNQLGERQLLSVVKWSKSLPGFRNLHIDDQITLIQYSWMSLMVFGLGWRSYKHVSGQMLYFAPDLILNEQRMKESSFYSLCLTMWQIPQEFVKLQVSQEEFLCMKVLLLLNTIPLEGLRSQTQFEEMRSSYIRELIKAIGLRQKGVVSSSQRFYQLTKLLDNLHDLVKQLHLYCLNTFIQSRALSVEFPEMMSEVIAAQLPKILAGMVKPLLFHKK
Sequence of UniProt P34981 (P34981 whole entry, looked up): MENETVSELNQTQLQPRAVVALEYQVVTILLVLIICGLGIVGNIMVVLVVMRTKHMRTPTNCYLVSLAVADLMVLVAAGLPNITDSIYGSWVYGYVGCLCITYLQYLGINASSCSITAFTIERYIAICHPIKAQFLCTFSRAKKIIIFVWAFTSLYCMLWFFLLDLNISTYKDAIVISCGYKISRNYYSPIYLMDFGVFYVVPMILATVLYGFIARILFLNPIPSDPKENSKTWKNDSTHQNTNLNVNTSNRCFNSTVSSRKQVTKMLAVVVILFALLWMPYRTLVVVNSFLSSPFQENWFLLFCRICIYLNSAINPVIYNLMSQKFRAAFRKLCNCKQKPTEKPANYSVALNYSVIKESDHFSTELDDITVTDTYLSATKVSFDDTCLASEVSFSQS

## C=CCCCCCCC=C
[1]
  Potency: inconclusive: 68.7 µM [falling, single point]
[2]
  Potency: inconclusive: 68.7 µM [cytotoxic, single point]
[3]
  Potency: inconclusive: 77.1 µM [cytotoxic, single point]

## Clc1nc(C(Cl)(Cl)Cl)c(Cl)c(Cl)c1Cl
[1]
  Potency: inconclusive: 15.4 µM
[2]
  Potency: inconclusive: 3.44 µM [cytotoxic, full curve]

## CC(C)(C)NC(=O)[C@@H]1C[C@@H]2CCCC[C@@H]2CN1C[C@@H](O)[C@H](Cc1ccccc1)NC(=O)[C@H](CC(N)=O)NC(=O)c1ccc2ccccc2n1
[1]
  Potency: active: 49.2 µM
[2]
  Potency: active: 55.2 µM
[3]
  Potency: active: 39.1 µM
[4]
  Potency: inconclusive: 55.7 µM [cytotoxic, single point]
[5]
  Potency: inconclusive: 62.5 µM [cytotoxic, single point]
[6]
  Potency: inconclusive: 49.6 µM [rising, partial curve]
[7]
  Potency: inconclusive: 49.6 µM [partial curve]

## CC1=C(/C=C/C(C)=C/C=C/C(C)=C/C=O)C(C)(C)CCC1
[1]
  Potency: active: 54.2 µM
[2]
  Potency: active: 68.2 µM
[3]
  Potency: active: 60.8 µM
[4]
  Potency: inconclusive: 19.4 µM [cytotoxic, partial curve, poor fit]
[5]
  Potency: inconclusive: 54.6 µM [cytotoxic, single point]

## C[n+]1cc2c3c(ccc2c2ccc4cc5c(cc4c21)OCO5)OCO3
[1]
  Potency: active: 2.59 µM
[2]
  Potency: active: 3.66 µM
[3]
  Potency: active: 3.26 µM
[4]
  Potency: active: 4.65 µM
[6]
  Potency: inconclusive: 4.14 µM
[7]
  Potency: inconclusive: 4.14 µM

## CCCCCCCCCCCCN1CCCC1=O
[1]
  Potency: active: 48.6 µM
[2]
  Potency: inconclusive: 68.6 µM [cytotoxic, single point]
[3]
  Potency: inconclusive: 68.6 µM [cytotoxic, single point]
[6]
  Potency: inactive

## O=c1n(CC2CO2)c(=O)n(CC2CO2)c(=O)n1CC1CO1 (stereo unspecified)
[1]
  Potency: inconclusive: 54.5 µM [falling, single point]
  activity change, negative = inhibition: inconclusive: -42.8%
[7]
  activity, negative = inhibition: inconclusive: 0.128%

## Oc1c(Cl)cc(Cl)c2cccnc12
[1]
  Potency: active: 0.841 µM
[2]
  Potency: inconclusive: 0.422 µM [cytotoxic, full curve, poor fit]
[3]
  Potency: inconclusive: 0.531 µM [cytotoxic, full curve]
[6]
  Potency: inconclusive: 23.9 µM [rising, single point]
[7]
  activity, negative = inhibition: inconclusive: 0.609% [at 35.3 µM]
[8]
  Potency: inconclusive: 2.66 µM [cytotoxic, full curve]

## Cc1cc(O)c(Cl)c(C)c1Cl
[1]
  Potency: inactive
[2]
  Potency: inconclusive: 13.7 µM [cytotoxic, single point]

## Cc1c(C)n(Cc2ccccc2)c2ccc(C(=O)OCCN(C)C)cc12
[1]
  Potency: active: 26.6 µM
[7]
  activity, negative = inhibition: inconclusive: -7.16% [at 35.3 µM]

## CCCCCCC(C)OC(=O)COc1nc(F)c(Cl)c(N)c1Cl (stereo unspecified)
[1]
  activity change, negative = inhibition: inconclusive: -26.8%
[3]
  Potency: inactive

## Cn1cc(C(=O)[C@@H]2CCc3nc[nH]c3C2)c2ccccc21
[1]
  Potency: inconclusive: 33.5 µM [falling, single point]
[2]
  Potency: active: 23.7 µM
[3]
  Potency: inconclusive: 26.6 µM [cytotoxic, partial curve, poor fit]
[8]
  Potency: inconclusive: 33.5 µM [cytotoxic, single point]

## CC(O)(c1ccc(Cl)cc1)c1ccc(Cl)cc1
[1]
  Potency: inconclusive: 9.69 µM [falling, full curve, poor fit]
[2]
  Potency: inconclusive: 77 µM [cytotoxic, single point]
[9]
  Potency: inconclusive: 33.8 µM [inhibitor, single point]
[8]
  Potency: inconclusive: 68.6 µM [cytotoxic, single point]

## C[C@]12CC[C@@H]3c4ccc(O)cc4CC[C@H]3[C@@H]1CCC2=O
[1]
  Potency: inconclusive: 273 nM [full curve] and inconclusive: 301 nM [full curve] and inconclusive: 335 nM [full curve]
[3]
  Potency: inconclusive: 19 µM [rising, partial curve, poor fit]

## CC1CC(OC(=O)c2ccccc2O)CC(C)(C)C1 (stereo unspecified)
[1]
  activity change, negative = inhibition: inconclusive: -32.9%
[3]
  Potency: inconclusive: 67.9 µM [cytotoxic, single point]
[8]
  Potency: inconclusive: 70.8 µM [cytotoxic, single point]

## CCn1c2ccccc2c2cc(N)ccc21
[1]
  activity change, negative = inhibition: inconclusive: -43.2%
[2]
  Potency: inconclusive: 0.243 µM [cytotoxic, single point]
[6]
  Potency: inconclusive: 54.4 µM [activator, partial curve, poor fit]
  activation: inconclusive: 18.4%
[8]
  Potency: inconclusive: 67.9 µM [cytotoxic, single point] and inactive and inconclusive: 61.1 µM [cytotoxic]

## CC(C)c1ccc2sc3ccccc3c(=O)c2c1
[1]
  Potency: inconclusive: 13.7 µM [rising, full curve]
[6]
  activation: inconclusive: 18.2%

## COc1ccc(C(Cl)=C(c2ccc(OC)cc2)c2ccc(OC)cc2)cc1
[1]
  Potency: active: 6.82 µM and active: 5.45 µM and active: 4.22 µM
[5]
  Potency: inconclusive: 8.67 µM [cytotoxic, single point]

## CCC(Cc1c(I)cc(I)c(N)c1I)C(=O)O (stereo unspecified)
[1]
  Potency: inconclusive: 37.4 µM [falling, partial curve]
[3]
  Potency: inactive and inconclusive: 11.9 µM [cytotoxic, single point]

## Oc1ccc(-c2ccccc2)c(Cl)c1
[1]
  Potency: inconclusive: 4.33 µM [rising, full curve]
[7]
  activity, negative = inhibition: inconclusive: -13.8%

## Brc1cc(Oc2cc(Br)c(Br)c(Br)c2Br)c(Br)c(Br)c1Br
[1]
  Potency: inconclusive: 17.3 µM [rising, partial curve]
[3]
  Potency: active: 2.18 µM
[6]
  Potency: inconclusive: 24.7 µM [rising, partial curve, poor fit]

## O=C1CCC/C=C\CCCCCCCCCC1
[1]
  Potency: active: 48.6 µM
[2]
  Potency: inconclusive: 68.6 µM [cytotoxic, single point]
[3]
  Potency: inconclusive: 61.1 µM [cytotoxic, partial curve]
[8]
  Potency: inconclusive: 68.6 µM [cytotoxic, single point]

## O=C(OC[C@H]1O[C@@H](OC(=O)c2cc(O)c(O)c(OC(=O)c3cc(O)c(O)c(O)c3)c2)[C@H](OC(=O)c2cc(O)c(O)c(OC(=O)c3cc(O)c(O)c(O)c3)c2)[C@@H](OC(=O)c2cc(O)c(O)c(OC(=O)c3cc(O)c(O)c(O)c3)c2)[C@@H]1OC(=O)c1cc(O)c(O)c(OC(=O)c2cc(O)c(O)c(O)c2)c1)c1cc(O)c(O)c(OC(=O)c2cc(O)c(O)c(O)c2)c1
[1]
  Potency: inconclusive: 14.7 µM [falling, partial curve]
[2]
  activity change, negative = cytotoxicity: inactive: -7.91% [at 18.9 µM]
[7]
  activity, negative = inhibition: inconclusive: 3.78% [at 15.8 µM]

## CSCCC=O
[1]
  Potency: inconclusive: 4.86 µM [rising, full curve, poor fit]
[2]
  Potency: inconclusive: 6.86 µM [cytotoxic, single point]
[8]
  Potency: inactive

## CN(C)CCN(Cc1cccs1)c1ccccn1
[1]
  activity change, negative = inhibition: inconclusive: -11.2% [at 42.5 µM]
[3]
  Potency: inconclusive: 24.2 µM [cytotoxic, partial curve] and inconclusive: 25.1 µM [cytotoxic]
[8]
  Potency: inconclusive: 54.2 µM [cytotoxic, partial curve]

## CC(C)=CCNc1ncnc2c1ncn2[C@@H]1O[C@H](CO)[C@@H](O)[C@H]1O
[1]
  Potency: inactive
[3]
  Potency: inconclusive: 1.06 µM [cytotoxic, full curve, poor fit]
[4]
  Potency: inconclusive: 6.74 µM [cytotoxic, partial curve]
[5]
  Potency: inconclusive: 5.35 µM [cytotoxic, full curve]
[7]
  activity, negative = inhibition: inconclusive: -48.2% [at 35.3 µM]

## O=Nc1ccc(NO)cc1
[1]
  activity change, negative = inhibition: inconclusive: -23.8%
[7]
  activity, negative = inhibition: inconclusive: 0.179%

## CCCCCC(=O)O[C@]1(C(C)=O)CC[C@H]2[C@@H]3CCC4=CC(=O)CC[C@]4(C)[C@H]3CC[C@@]21C
[1]
  Potency: active: 21.1 µM
[2]
  Potency: active: 43 µM and active: 33.5 µM
[4]
  Potency: inconclusive: 24.4 µM [cytotoxic, partial curve]
[5]
  Potency: inconclusive: 19.4 µM [cytotoxic, partial curve, poor fit] and inconclusive: 5.35 µM [cytotoxic, partial curve, poor fit]
[7]
  activity, negative = inhibition: inconclusive: -25% [at 35.3 µM]
[8]
  Potency: inconclusive: 33.5 µM [cytotoxic, single point]

## Cc1ccc(-n2[nH]c(C)c(N=Nc3cccc(-c4cccc(C(=O)O)c4)c3O)c2=O)cc1C
[1]
  Potency: active: 18.8 µM
[2]
  Potency: inconclusive: 37.6 µM [cytotoxic, single point]
[3]
  Potency: inconclusive: 5.96 µM [rising, partial curve]
[8]
  Potency: inconclusive: 33.5 µM [cytotoxic, single point]

## CCCCNS(=O)(=O)c1ccccc1
[1]
  Potency: inactive
[3]
  Potency: inconclusive: 0.243 µM [cytotoxic, single point]

## CC(C)(C)c1ccc(C(O)CCCN2CCC(C(O)(c3ccccc3)c3ccccc3)CC2)cc1 (stereo unspecified)
[1]
  Potency: inactive
[3]
  Potency: inactive
[5]
  Potency: inconclusive: 26.8 µM [cytotoxic, single point]
[6]
  Potency: inconclusive: 26.8 µM [falling, single point]
[7]
  activity, negative = inhibition: inconclusive: -14% [at 35.3 µM]

## Cc1ccc(S(=O)(=O)NC(=O)NN2CCCCCC2)cc1
[1]
  Potency: inactive
[3]
  Potency: inconclusive: 13.7 µM [rising, full curve, poor fit]
[6]
  Potency: inactive
